Hit rate of the full screen: of about 50,000 compounds, about 800 (1.6%) showed an effect of 50% or more. This is one part of the list.
target: Bcl-2-like protein 10 (Homo sapiens) (UniProt Q9HD36); assay: TR3 peptide-Bcl-B binding displacers, biochemical primary FP assay, phenotype converters (AID 1240); details: GST-Bcl-B / FITC-TR3 peptide fluorescence polarization; stronger effect = higher value; compound at 3.75 mg/L;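 also: 0% = Bcl-B with tracer peptide and DMSO and 100% = tracer peptide lacking Bcl-B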
Sequence of UniProt Q9HD36 (Q9HD36 whole entry, looked up): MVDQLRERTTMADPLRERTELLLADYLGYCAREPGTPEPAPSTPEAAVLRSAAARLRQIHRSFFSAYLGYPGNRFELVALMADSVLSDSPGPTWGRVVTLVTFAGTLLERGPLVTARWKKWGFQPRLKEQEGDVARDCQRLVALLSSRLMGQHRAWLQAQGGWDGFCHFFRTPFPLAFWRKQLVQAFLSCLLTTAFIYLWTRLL

Point of comparison: `COc1ccccc1OCC(=O)NCCc1nc2ccccc2[nH]1`, displacement 5.2%. Against it:
- O=c1oc(COc2ccccc2Cl)nc2ccccc12 — lower, 0.4%
- O=C(COc1ccc2c(c1)oc(=O)c1ccccc12)OCc1ccccc1 — higher, 7.5%
- Cc1ccc(/C=C2/SC(=S)N(NC(=O)c3ccccc3Br)C2=O)o1 — higher, 28.3%
- CCN1C(=O)/C(=C\c2ccc(-c3ccc([N+](=O)[O-])cc3Cl)o2)SC1=S — higher, 19.5%
- O=Cc1cc(Cl)c(OCc2ccccc2Cl)c(Cl)c1 — lower, -1.6%
- O=C(c1ccco1)N(Cc1ccccc1)C(Cc1ccccc1)c1cccs1 (stereo unspecified) — higher, 6.6%
- COc1ccc(S(=O)(=O)Nc2ccc(S(N)(=O)=O)cc2)cc1 — lower, 3.3%
- CCCc1cc(=O)oc2cc(C)cc(OCC(C)=O)c12 — higher, 9.2%
- O=C(Nc1cccc(Cl)c1)c1cccc(NC(=O)c2ccc(Cl)cc2Cl)c1 — lower, -16.3%
- CS(=O)(=O)c1ccc2nc(NC(=O)c3cc(-c4ccccc4)nc4ccccc34)sc2c1 — lower, -2.6%
- O=C(CSc1ccccc1)Nc1nnc(CCC(=O)c2ccccc2)s1 — lower, -5.3%
- COc1ccc([N+](=O)[O-])cc1NC1CCC(c2ccccc2)CC1 (stereo unspecified) — higher, 31.5%
- COc1ccc(/C(C)=N/NC(=O)CSCc2cccc(Cl)c2)cc1OC — lower, -11.5%
- O=C(CCCN1C(=O)c2ccccc2C1=O)Nc1cccnc1 — higher, 20.6%
- COc1ccc(CC(=O)N=Nc2c(O)n(CN3CCN(C)CC3)c3ccccc23)cc1 — lower, -3%
- Cc1ccc(S(=O)(=O)N2CCN(C(=O)COc3ccccc3)CC2)cc1 — lower, -2.9%
- O=C(Nc1cccnc1)c1cnn2c(C(F)(F)F)cc(-c3cccs3)nc12 — lower, -13.9%
- Cc1ccc(/C=N/NC(=O)/C(=C\c2ccc3c(c2)OCO3)NC(=O)c2ccccc2)o1 — lower, -18.2%
- COc1ccccc1N1CCN(C(=O)COc2ccccc2)CC1 — lower, 3%
- CCOc1ccc(CN2CCN(S(C)(=O)=O)CC2)cc1 — higher, 12.7%
- COCCNC(=O)C(=O)Nc1ccccc1C — higher, 12.1%
- COc1cc(/C=C2/SC(=S)N(c3ccccc3)C2=O)cc(Cl)c1OCc1ccccc1 — higher, 13.4%
- CCCCNCCOCCOc1ccc(OC)cc1 — lower, -4.2%
- Oc1ccc(Br)cc1C=Nc1ccc(Cl)c2cccnc12 — lower, -7.3%
- N#Cc1c2n(c3c(NCCCO)ncnc13)CCCCC2 — lower, -8.3%
- O=C(O)c1ccc(N2C(=O)CC(Cc3ccc(Cl)cc3)C2=O)cc1 (stereo unspecified) — higher, 13.8%
- O=C1NC(=S)N/C1=C/c1ccc(-c2cccc(Cl)c2Cl)o1 — higher, 12.4%
- COc1ccc(NC(=O)C2CC(=O)N(c3ccccc3)C2)cc1 (stereo unspecified) — lower, -2.5%
- CCCCCCN1C=CC(=C2C(=O)c3ccccc3C2=O)C=C1 — lower, -4.8%
- CCOc1ccc(/C=N/N2CCN(c3ccccc3OC)CC2)cc1OC — higher, 8%
- COc1ccc(/C=C/C(=O)NCc2ccccc2C)cc1 — lower, 0.8%
- COCCNC(=O)CN(c1cccc([N+](=O)[O-])c1)S(=O)(=O)c1ccccc1 — lower, -7.8%
- CCC(=O)Nc1c(-c2ccccc2)nc2ccc(C)cn12 — higher, 10.8%
- O=C(c1cccs1)N(Cc1ccccc1)Cc1ccccc1 — lower, -5.4%
- O=C(Nc1ccc([N+](=O)[O-])cn1)c1cc(-c2ccc(Cl)c(Cl)c2)nc2ccccc12 — higher, 52.4%
- Cc1cc(=O)oc2c(C)c(OCc3ccccc3)ccc12 — lower, -3.1%
- COc1cc(/C=C2\C=C(c3ccc(Br)cc3)OC2=O)c([N+](=O)[O-])cc1OC — higher, 55%
- Cc1cc(I)ccc1NC(=O)/C=C/c1ccccc1Cl — higher, 8.7%
- CN(C)/C=C/c1oc2ccc(Oc3ncccc3C#N)cc2c1[N+](=O)[O-] — lower, -10.4%
- CCOc1ccccc1C(=O)Nc1sc2c(c1C(=O)OC)CCCC2 — higher, 7.8%
- COc1ccc(/C=C2/C(=O)N(c3cccc(C(F)(F)F)c3)N=C2C)cc1OC — lower, -3.3%
- COc1cccc(C(=O)Nc2ccc3nn(-c4ccc(Cl)cc4)nc3c2)c1 — higher, 26.8%
- CCN(CC)CCNc1c(N)c(=O)oc2ccccc12 — higher, 6.6%
- O=C(NN1C(=O)/C(=C/c2ccccc2)SC1=S)c1ccccc1Br — lower, 2.6%
- Cc1ccc(C(C)C)c(OCCN)c1 — higher, 10.3%
- C/C(=N\N1CCN(c2ccccc2)CC1)c1ccccc1O — higher, 15.8%
- CCOC(=O)c1c(NC(=O)COc2ccc(Cl)cc2)sc2c1CCC2 — higher, 20.3%
- O=C(Nc1cccc([N+](=O)[O-])c1)C1C2C3CCC(C3)C12 (stereo unspecified) — lower, 5.1%
- O=C(Nc1c(C(=O)N2CCCCC2)cnn1-c1ccccc1)c1ccccc1Cl — higher, 15%
- CC(C)=C1C2C=CC1C1C(=O)N(c3cccc(Br)c3)C(=O)C21 (stereo unspecified) — lower, -0.9%
- O=C(O)C1C2CCC(C2)C1C(=O)Nc1nncs1 (stereo unspecified) — lower, 0.3%
- Cc1ccc(-n2c(-c3cccc(C)c3)n[nH]c2=S)cc1 — lower, -2.1%
- O=C(N/N=C/c1cccc([N+](=O)[O-])c1)c1cc(-c2ccc(Cl)cc2)n[nH]1 — lower, -13.4%
- O=C(Cc1ccc(-c2ccccc2)cc1)NNC(=O)c1ccc(Cl)cc1 — lower, -10%
- O=[N+]([O-])c1ccc(N/C(=N/S(=O)(=O)c2ccc(Cl)cc2)c2ccccc2)cc1 — higher, 12.1%

— PubChem BioAssay AID1240 (Sanford-Burnham Center for Chemical Genomics, 2008)
